From the supplement of paper PMC3334620
The full ranking holds about 33,000 sequences; the median of “E-score (-0.5 to 0.5)” is about -0.035, and the highest 2% start at about 0.35. Some of the results follow.

biological target: T1, Pdr3 (UniProt P33200); test: PBM E-score (8-mer binding enrichment) (E-score (-0.5 to 0.5)); higher = stronger / more preferred TF binding; most listed sequences are background and not binding sites; conditions: protein concentration: 200 nM; construct: GST-full length
T1 sequence: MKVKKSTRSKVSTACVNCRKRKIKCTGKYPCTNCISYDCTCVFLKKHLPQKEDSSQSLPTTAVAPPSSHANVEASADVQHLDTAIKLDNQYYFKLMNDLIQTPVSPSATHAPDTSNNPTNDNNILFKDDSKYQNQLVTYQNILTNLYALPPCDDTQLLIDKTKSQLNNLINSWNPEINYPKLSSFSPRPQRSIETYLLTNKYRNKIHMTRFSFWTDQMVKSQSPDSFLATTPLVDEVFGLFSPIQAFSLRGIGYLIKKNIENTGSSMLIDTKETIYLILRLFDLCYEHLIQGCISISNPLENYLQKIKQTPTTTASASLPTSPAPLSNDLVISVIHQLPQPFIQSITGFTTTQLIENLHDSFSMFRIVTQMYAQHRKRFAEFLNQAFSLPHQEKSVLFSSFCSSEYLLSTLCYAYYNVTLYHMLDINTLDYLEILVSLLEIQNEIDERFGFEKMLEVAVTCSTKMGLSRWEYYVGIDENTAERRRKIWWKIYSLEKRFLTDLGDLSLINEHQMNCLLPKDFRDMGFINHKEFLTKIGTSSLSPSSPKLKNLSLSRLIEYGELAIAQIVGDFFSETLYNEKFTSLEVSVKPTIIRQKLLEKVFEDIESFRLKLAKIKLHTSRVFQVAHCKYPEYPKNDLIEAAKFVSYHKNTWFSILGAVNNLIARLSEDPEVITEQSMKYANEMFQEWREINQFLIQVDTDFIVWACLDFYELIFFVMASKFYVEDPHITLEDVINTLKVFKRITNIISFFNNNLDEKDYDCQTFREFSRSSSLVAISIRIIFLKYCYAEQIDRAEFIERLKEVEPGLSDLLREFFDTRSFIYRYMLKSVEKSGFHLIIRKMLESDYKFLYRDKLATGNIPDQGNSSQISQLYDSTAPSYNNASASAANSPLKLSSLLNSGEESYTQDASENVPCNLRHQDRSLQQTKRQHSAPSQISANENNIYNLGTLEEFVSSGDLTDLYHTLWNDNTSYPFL
Method: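 Universal 'all 10-mer' protein binding microarrays (Agilent AMADID 015681) probed with GST-tagged S. cerevisiae TFs (full-length or DBD) made by in vitro transcription/translation (PURExpress), about 100-200 nM. Bound TF was detected with fluorescent anti-GST. Each ungapped 8-mer (which stands for itself and its reverse complement) is scored by the PBM enrichment score (E-score), a modified Wilcoxon-Mann-Whitney statistic from -0.5 to +0.5, computed with the Universal PBM Analysis Suite. Scale: above 0.35 generally sequence-specific binding.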

Sequence	PBM E-score
AGTGGTAC	-0.201
ATGATCCG	0.336
CCTGCCAG	-0.261
ACGTTCCG	0.445
GTTCCGGA	0.475
AATCCTAT	0.0914
CCAGGTTC	-0.00168
CCATCAGC	-0.0053
CCCAATCC	0.0182
GGAGACAA	0.114
CTTTCCTC	-0.162
GCGACCCA	0.0349
CCCCCCGC	-0.0608
GGCAGGCC	0.0687
GCTGTGCA	-0.104
CAAAGGTG	-0.16
GGCCAGCA	0.0963
CAAGGGAG	0.00978
AAGCCGGT	0.199
GCGGGAGC	0.134
ATCCCCAT	0.0612
ATGTATGC	0.0813
CCGTACGC	0.063
ATCTAATA	-0.07
CCCCATCA	-0.0832

Sequence	PBM E-score
CAGCTATC	-0.0475
ACTAGACA	-0.00213
CGTAGATC	0.0568
TATTGTGA	-0.091
AGCTTCGC	-0.162
CGTCCTAG	-0.0411
AAAGACTA	-0.113
ACGAAACG	0.0629
CACTCAAC	-0.0691
GGTGGATA	-0.0607
TAGATAAA	-0.0298
CGCTCGAA	-0.024
GACAAGTA	0.00093
ACAAACCG	0.0143
AAACCACA	-0.0401
AGAGCTTC	0.0657
AGGTCCTG	-0.0403
CCGTTTTA	0.223
CCAATTGG	-0.116
GACTAACC	-0.2
GCTGCTTA	-0.0871
ACATAGTG	0.0389
ATTCACTG	-0.172
AGCGTGCA	0.15
CTAATGGC	-0.0791

Sequence	PBM E-score
CGGTGGGA	0.119
CCCACAAC	-0.0955
ATAGGCCA	0.113
CACTCGCA	0.0332
AAAACTCT	-0.109
AGACGTCC	-0.143
ATCTGAAA	-0.0697
CCCTGTAG	-0.0901
CACCGGGG	0.0593
GATACTGC	0.173
CTTATAGA	-0.104
TAAGTCAA	-0.303
GACAATCC	0.207
AAGCAAGA	-0.234
ACCATTGA	-0.174
AATCAGTC	0.0138
CAGACCGC	0.118
ACTATCAG	-0.184
CACATTCA	-0.021
AGATCTCG	0.0171
CCAAAAAC	0.13
CAATTGGA	-0.073
ATGGTTTC	0.0245
ACCGGGCG	0.0259
ATGCTAGC	0.0707

Sequence	PBM E-score
AGTACTGA	-0.0379
CGAATAAG	-0.0661
CAACACGA	0.00758
CAAGTCCA	-0.167
AACGCAAG	-0.127
CGGCCCGA	0.247
CAACCCCC	-0.326
ACCACGCC	-0.107
GCCTACGA	-0.0387
TCGACCGA	0.0776
GTATCGTA	-0.0613
AAAATGAC	0.0831
ACCCTCGA	-0.0969
GTACAAGA	-0.173
AGCTGTTA	-0.253
AGAACCCT	-0.171
CAAATAGA	-0.00068
CTCCTAGA	-0.222
AAGCTGTA	-0.0433
ATTGAGCA	-0.0462
AACCTAGC	0.0265
CCGTTGGA	0.164
AGAGAGAG	-0.17
ATAACCCA	-0.0453
GATTGTCA	0.00555

Sequence	PBM E-score
TCCGACGA	0.308
CAATTCCC	0.133
CATTGCAC	-0.0987
TGCGTCAA	-0.106
ACATTAAT	-0.0704
CTTCAATC	0.0103
CGGAGGGC	0.152
CGCTGGAC	-0.075
AGTTTCAC	-0.186
CAGTTGGG	-0.234
ATAATCGA	-0.0434
AGAGTGGG	-0.0517
ACTTCCGC	0.385
CAGTTCCC	0.342
ACGGCTGC	0.0794
CTCAGGAG	-0.215
CAGACTAG	-0.363
CCATCGAA	-0.0409
CACCAGTG	-0.228
ACATGACT	-0.285
CGCAGTCA	-0.178
ACCTGTGG	-0.145
CTATTGCA	-0.00711
ACGCATAC	-0.183
ACCGTCGC	0.291

Sequence	PBM E-score
GACTATTA	-0.135
TTTAAAAA	-0.0414
CATGTAGG	0.074
ATGGATAA	0.0866
AGGGAATC	0.00236
ATAACGAT	-0.0842
ATGGCAGC	-0.0926
AGGAAAAC	0.0846
CTCACTGC	-0.163
CACGGAGG	0.26
CATACGGG	0.0966
CAAGTATA	-0.211
AGGGAAGA	-0.238
AGCCGTCG	0.1
AAATACTG	-0.0815
ACTGCGCG	0.0744
AGGTGAGA	-0.0387
CTAGTACA	-0.0998
GGCTATTA	-0.102
AGCTTTCC	0.202
AGAGCCGA	0.139
ATCCGAAC	0.316
ACCACGAA	-0.101
ACGTGATG	-0.198
AAACAGCG	0.0751

Sequence	PBM E-score
GTGGACGA	-0.0123
CGTACCAA	0.0303
CTCTGTGA	-0.234
AGGAGACC	-0.137
CGTGTGCC	-0.0954
GCAGCCCC	0.202
ATGGCGCG	0.126
CCGTGCGC	0.286
AACGTCGG	0.0976
ATAGCTTA	-0.0418
CATGATGC	-0.0779
ATGGCTAG	-0.19
AGATGCAT	-0.0177
CAACTCAG	-0.179
ACCTTACG	-0.0126
GGATATTA	0.216
CACGCGGG	0.0841
CGAGGCTC	-0.0559
CTAGCGGA	0.182
GTAAACCA	0.0021
ATTCGTAG	-0.172
CTCCCCAC	-0.1
